Source: PubChem BioAssay AID504339 (National Center for Advancing Translational Sciences (NCATS), 2011)
Screen size: about 390,000 compounds; about 17,000 (4.4%) were called active. This list was built around the results that the source calls inconclusive (neither active nor inactive); the mix of calls is not that of the screen. The call rests on the fitted dose curve; in most records, active means well fitted inhibition curve with a large enough effect; inconclusive means small, poorly fitted or top-dose-only effect; inactive means no such curve, though single readings can be large or run the other way. A potency beside an inconclusive call is a rough fit, not a confirmed value.

molecular target: Lysine-specific demethylase 4A (Homo sapiens) (UniProt O75164); experiment: qHTS Assay for Inhibitors of JMJD2A-Tudor Domain; details: AlphaScreen JMJD2A-Tudor / H3K4me3 peptide binding; activity change, negative = inhibition: at 114 µM (top of the series); further: nearly all actives have a fitted effect of over 50% in size
Chain of UniProt O75164 (O75164 whole entry, looked up, the tested form may be a part): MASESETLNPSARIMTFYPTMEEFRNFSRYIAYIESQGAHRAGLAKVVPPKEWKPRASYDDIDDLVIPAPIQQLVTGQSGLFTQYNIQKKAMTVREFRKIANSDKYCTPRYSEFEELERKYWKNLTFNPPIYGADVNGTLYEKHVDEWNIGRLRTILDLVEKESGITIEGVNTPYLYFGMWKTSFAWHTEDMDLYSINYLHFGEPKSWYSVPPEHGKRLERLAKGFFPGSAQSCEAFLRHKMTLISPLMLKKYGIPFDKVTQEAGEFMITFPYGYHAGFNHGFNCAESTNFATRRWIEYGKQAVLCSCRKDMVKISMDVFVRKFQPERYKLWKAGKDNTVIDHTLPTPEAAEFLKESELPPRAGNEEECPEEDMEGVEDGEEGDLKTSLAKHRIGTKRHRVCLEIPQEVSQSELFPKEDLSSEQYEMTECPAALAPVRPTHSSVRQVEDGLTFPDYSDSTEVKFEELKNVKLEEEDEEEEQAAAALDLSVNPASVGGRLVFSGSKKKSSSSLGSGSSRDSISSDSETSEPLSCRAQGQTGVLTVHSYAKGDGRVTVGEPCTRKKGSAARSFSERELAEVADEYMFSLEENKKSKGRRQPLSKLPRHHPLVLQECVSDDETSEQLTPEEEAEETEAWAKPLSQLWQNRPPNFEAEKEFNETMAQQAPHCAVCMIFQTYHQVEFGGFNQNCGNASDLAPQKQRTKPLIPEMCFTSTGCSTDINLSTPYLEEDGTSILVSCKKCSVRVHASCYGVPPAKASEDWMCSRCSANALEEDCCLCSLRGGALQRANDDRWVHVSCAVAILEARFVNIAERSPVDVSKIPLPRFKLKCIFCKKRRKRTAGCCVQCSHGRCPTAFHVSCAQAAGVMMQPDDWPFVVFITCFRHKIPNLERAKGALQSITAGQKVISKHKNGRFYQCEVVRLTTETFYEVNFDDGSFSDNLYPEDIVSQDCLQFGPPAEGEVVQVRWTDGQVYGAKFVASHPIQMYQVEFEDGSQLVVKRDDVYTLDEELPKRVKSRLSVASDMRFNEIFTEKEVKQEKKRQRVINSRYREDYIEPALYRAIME
On the % scale 0 is the no-effect control and ±100 the full control effect; potency means the concentration at half of the fitted maximal effect; tags describe the fitted curve by direction and shape.

| Structure (SMILES) | activity change, negative = inhibition | Potency |
| --- | --- | --- |
| C/C(=N/NC(=O)CNS(=O)(=O)c1ccccc1)c1ccc(Br)cc1 | inactive: -3.83% | – |
| Cc1cc(C)n2c(SCC(=O)Nc3ccccc3)nnc2n1 | inactive: -4.93% | – |
| COc1ccc(N2CCN(C(c3cccs3)C(C)NS(=O)(=O)c3ccccc3)CC2)cc1 (stereo unspecified) | – | active: 10 µM |
| COc1ccc2c(c1)CC(C(=O)NCc1ccc(F)cc1)CO2 (stereo unspecified) | inactive: -0.639% | – |
| COc1ccc(N(C(=O)c2cccc([N+](=O)[O-])c2)S(=O)(=O)c2cccs2)cc1 | – | inconclusive: 44.7 µM [inhibitor, partial curve] |
| Cc1cc(C)c(S(=O)(=O)Nc2cc(SCC(=O)O)c(O)c3ccccc23)cc1C | – | active: 22.4 µM |
| CCN(CC)CCCNC(=O)c1ccc2c(=O)n(Cc3ccc4c(c3)OCO4)c(=S)[nH]c2c1 | – | inconclusive: 22.4 µM [inhibitor, full curve] |
| Cc1ccc(OCc2ccc(C(=O)NCC3CCCO3)cc2)cc1 (stereo unspecified) | inactive: 2.07% | – |
| COCCCNC(=O)c1ccc(CNS(=O)(=O)c2ccc(NC(C)=O)cc2)cc1 | – | active: 50.1 µM |
| CCOc1ccc(C(C)=O)cc1N1C(=O)C2C3C=CC(O3)C2C1=O (stereo unspecified) | – | active: 20 µM |
| O=C(Nc1nc(-c2ccc(Cl)s2)cs1)c1ccccc1 | inactive: 7.83% | – |
| Cc1cccc(CN(C)CCc2ccccn2)c1 | – | active: 3.16 µM |
| Cc1ccc(CN2CCSc3ccc(C(=O)N4CCN(c5ccc(Cl)cc5)CC4)cc32)cc1 | – | inconclusive: 20 µM [inhibitor, partial curve, poor fit] |
| COc1ccc2nc(SCC(=O)Nc3ccc(S(=O)(=O)Nc4nccc(C)n4)cc3)[nH]c2c1 | – | inconclusive: 89.1 µM [inhibitor, partial curve] |
| CCOc1ccc(-n2c(SC(C)C)nc3c(c2=O)SCC3)cc1 | – | inconclusive: 28.2 µM [inhibitor, partial curve] |
| O=C1c2ccccc2C(=O)N1CCc1csc(NNc2nc(CCN3C(=O)c4ccccc4C3=O)cs2)n1 | – | inconclusive: 56.2 µM [inhibitor, partial curve] |
| CCCCN1C(=O)c2[nH]nc(-c3ccccc3O)c2C1c1cc(Br)c(O)c(OC)c1 (stereo unspecified) | – | inconclusive: 22.4 µM [inhibitor, full curve] |
| Cc1ccc(-n2ncc3c2CCCC3NC(=O)CCCN2CCCCC2=O)cc1C (stereo unspecified) | inactive: -10.3% | – |
| NNc1nc2sc3c(c2c(=O)[nH]1)CCc1ccccc1-3 | – | inconclusive: 56.2 µM [inhibitor, partial curve] |
| CCOc1ccc(CCNC(=O)Cn2ncn3c(cc4sc(C)cc43)c2=O)cc1OCC | inactive: -6.18% | – |
| COc1ccc(CC(=O)N/N=C(\C)CC(=O)NCc2ccco2)cc1OC | inactive: -17.8% | – |
| Cc1cc(C(=O)CN2C(=O)NC(C)(c3cc(F)ccc3F)C2=O)c(C)n1C1CC1 (stereo unspecified) | – | inconclusive: 63.1 µM [inhibitor, partial curve, poor fit] |
| CCN1CCN(c2oc(/C=C/c3ccc(OC)c(OC)c3)nc2C#N)CC1 | inactive: 13.2% | – |
| Cc1ccc2c(c1)C(=O)C(=O)N2Cc1ccc(Br)cc1 | – | inconclusive: 15.8 µM [inhibitor, full curve] |

| Structure (SMILES) | activity change, negative = inhibition | Potency |
| --- | --- | --- |
| FC(F)(F)c1ccc(C2Nc3cccc4cccc(c34)N2)cc1 | – | inconclusive: 44.7 µM [inhibitor, partial curve] |
| CCN(CC)CCNc1nc(-c2cccs2)c(CC(=O)O)s1 | – | active: 5.62 µM |
| Cn1cccc1/C=C1\CC(C(C)(C)C)C/C(=C\c2cccn2C)C1=O (stereo unspecified) | – | active: 39.8 µM |
| CN(C)C(=O)c1cc(C(=O)c2ccccc2C(F)(F)F)c[nH]1 | – | inconclusive: 31.6 µM [inhibitor, full curve] |
| CCOc1ccc(-n2c(=O)c3sc4ccccc4c3n(Cc3cccc(C)c3)c2=O)cc1 | – | inconclusive: 14.1 µM [inhibitor, full curve, poor fit] |
| COC(=O)c1c(NC(=O)CCC(=O)O)sc(Cc2ccccc2)c1C | inactive: 2.94% [at 11.4 µM] | – |
| Cc1ccc(C(=O)N2CCN(C(=O)c3ccccc3)C2c2ccc(N(C)C)cc2)cc1 (stereo unspecified) | – | inconclusive: 70.8 µM [inhibitor, single point] |
| O=C(CSC1=Nc2ccccc2N=C(c2ccc(F)cc2)C1)NCc1ccccc1 | inactive: -13.1% | – |
| Cc1ccc(-n2ncc(C(=O)NCCCN3CCN(c4cccc(Cl)c4)CC3)c2-n2cccc2)cc1 | – | inconclusive: 50.1 µM [inhibitor, partial curve] |
| COc1cccc(/C(O)=C2/C(=O)C(=O)N(Cc3ccco3)C2c2ccncc2)c1 (stereo unspecified) | – | inconclusive: 89.1 µM [inhibitor, single point] |
| O=C(NCCc1ccc(Cl)cc1)c1ccc(Cn2c(=O)c3cccn3c3cccnc32)cc1 | – | inconclusive: 35.5 µM [inhibitor, partial curve] |
| O=C/C=C/c1c(-c2ccccc2)cc2oc3ccccc3cc1-2 | – | active: 6.31 µM |
| Cc1ccc(CNc2nc3ccccc3c3nc(-c4cccc(C)c4)nn23)cc1 | inactive: 18.5% | – |
| CN(C)c1ccc(NC(=O)Cn2cc3c(n2)CCCC3)cc1 | – | active: 50.1 µM |
| COc1ccc(CNC(=O)CCc2c(C)nn(-c3ccc(N4CCCCC4)nn3)c2C)c(OC)c1 | – | active: 89.1 µM |
| C=CCn1c(SCC(=O)c2ccc(CNC(C)=O)o2)nc2scc(C3CC3)c2c1=O | – | inconclusive: 44.7 µM [inhibitor, partial curve, poor fit] |
| O=C(Nc1nnc(-c2ccncc2)s1)C1CCCO1 (stereo unspecified) | – | active: 100 µM |
| Cn1c(=O)c2[nH]c(NCCCN3CCOCC3)nc2n(C)c1=O | – | inconclusive: 25.1 µM [inhibitor, full curve, poor fit] |
| CCn1ccnc1CN1CCCC(C(=O)c2ccc3c4c(cccc24)CC3)C1 (stereo unspecified) | – | inconclusive: 31.6 µM [inhibitor, partial curve] |
| CCC(C)NCc1ccc(C(=O)OC)o1 (stereo unspecified) | – | inconclusive: 39.8 µM [inhibitor, single point] |
| COc1ccc(CNC(=O)c2c(C)oc3c2C(=O)c2ccccc2C3=O)cc1 | – | inconclusive: 2.82 µM [inhibitor, full curve, poor fit] |
| O=C(NCCCCCCNC(=O)c1cncc(O)c1)c1cncc(O)c1 | – | active: 15.8 µM |
| COc1ccc(OC)c(Nc2nc(N)c([N+](=O)[O-])c(N3CCOCC3)n2)c1 | – | inconclusive: 22.4 µM [inhibitor, full curve] |
| COc1ccc(OC)c(C2C(C#N)=C(N)Oc3cc(N)ccc32)c1 (stereo unspecified) | – | inconclusive: 79.4 µM [inhibitor, partial curve] |

| Structure (SMILES) | activity change, negative = inhibition | Potency |
| --- | --- | --- |
| CS(=O)(=O)c1nc(S(=O)(=O)c2ccc(Cl)cc2)c(NCCCN2CCOCC2)s1 | inactive: -18.2% | – |
| CC(C)(C)c1ccccc1OCC(O)CN1CCN(c2ccccn2)CC1 (stereo unspecified) | – | inconclusive: 89.1 µM [inhibitor, partial curve] |
| Cc1c(Cl)cccc1NC(=S)C(=C([O-])c1ccc(Cl)s1)[n+]1ccccc1 | – | active: 50.1 µM |
| Cc1ccc(Sc2c(C)nn(C(=O)COc3ccc(F)cc3)c2C)cc1 | inactive: 24.2% | – |
| CCCCC/C=N/NC(=O)c1[nH]c2ccc([N+](=O)[O-])cc2c1C | – | inconclusive: 8.91 µM [inhibitor, full curve, poor fit] |
| Cc1ccccc1-n1cc(-c2ccccc2)nc1SCC(=O)Nc1ccc(F)cc1 | – | inconclusive: 50.1 µM [inhibitor, partial curve] |
| Cc1cc(F)ccc1NCc1cc2c(cc1[N+](=O)[O-])OCO2 | – | inconclusive: 14.1 µM [inhibitor, partial curve, poor fit] |
| COc1ccc(-n2c(=O)c3c4c(sc3n(Cc3cc(C)ccc3C)c2=O)CN(C(C)=O)CC4)c(OC)c1 | – | inconclusive: 100 µM [inhibitor, partial curve] |
| COc1ccc(/C=C/C(=O)NCCN2CCOCC2)cc1OC | – | inconclusive: 15.8 µM [inhibitor, full curve] |
| CC(C)N1C(=O)S/C(=C\c2ccc(-c3ccc(Cl)c(C(=O)O)c3)o2)C1=O | – | active: 79.4 µM |
| CC1=C(CC(=O)O)c2cc(F)ccc2/C1=C\c1ccc(S(C)=O)cc1 (stereo unspecified) | inactive: -32.4% | – |
| CC(=O)Nc1ccc(SC[C@H](Cc2ccccc2)N2CCN(CCc3ccccc3)CCC2=O)cc1 | – | inconclusive: 56.2 µM [inhibitor, partial curve] |
| c1coc(-c2cc(C3CCNCC3)[nH]n2)c1 | inactive: -12.4% | – |
| CN(c1ccccc1)S(=O)(=O)c1cccc(NC(=O)CN2CCc3ccccc3C2)c1 | inactive: -14.3% | – |
| CC(=O)N1CCCc2cc(S(=O)(=O)N3CCN(c4ccccn4)CC3)ccc21 | inactive: 1.45% | – |
| COC(=O)c1ccc(NS(=O)(=O)c2cc3c4c(c2)CCC(=O)N4CCC3)cc1 | inactive: -3.45% | – |
| COc1cccc(CCNC(=O)CCc2nnc(-c3cc(C)oc3C)o2)c1 | inactive: -12.1% | – |
| CN1CCN(c2ccccc2NC(=O)c2ccc([N+](=O)[O-])cc2Cl)CC1 | – | inconclusive: 56.2 µM [inhibitor, partial curve] |
| COc1ccc([N+](=O)[O-])cc1N/C(=N/S(=O)(=O)c1ccccc1)c1ccccc1 | – | inconclusive: 63.1 µM [inhibitor, partial curve, poor fit] |
| C/C(=N\NC(=O)C1COc2ccccc2O1)c1ccccn1 (stereo unspecified) | – | active: 50.1 µM |
| CN(c1ccccc1)S(=O)(=O)c1ccc(C(=O)OCC(=O)NCc2ccco2)cc1 | – | inconclusive: 70.8 µM [inhibitor, partial curve] |
| O=C(Nc1cc2c(oc1=O)CCCC2=O)c1ccc(Cl)cc1 | – | active: 14.1 µM |
| CCN1C/C(=C\c2cccc([N+](=O)[O-])c2)C(=O)/C(=C/c2cccc([N+](=O)[O-])c2)C1 | – | inconclusive: 10 µM [inhibitor, partial curve] |
